The supplement of paper PMC10369915
The other results are listed elsewhere or left out. Rule as the data show it: active = 3.2 or more and inactive = the rest. Only a few entries rise above the background.

Experiments:
Assay in all cases: enrichment score (SH2-bound / input frequency) (ratio); bacterial display of known human phosphotyrosine sites (pTyr-Var adds point mutants) read by sequencing; higher = stronger binding; tyrosines were phosphorylated by kinases first
Conditions in all cases: peptide library: pTyr-Var
SHP2 C-SH2 domain E139D = molecular target: SHP2 C-SH2 domain E139D
[1] = molecular target: SHP2 C-SH2 domain wild-type
SHP2 N-SH2 domain L43F = molecular target: SHP2 N-SH2 domain L43F
SHP2 N-SH2 domain T42A = molecular target: SHP2 N-SH2 domain T42A
SHP2 N-SH2 domain T52S = molecular target: SHP2 N-SH2 domain T52S
[2] = molecular target: SHP2 N-SH2 domain wild-type

Measured: enrichment score
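Also: displayed peptides selected on beads carrying the immobilized SH2 domain, with library peptides lacking any tyrosine serving as negative controls.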

B1: GLB1_Y488_D491N (peptide)
chain: VNYGAYINNFK
inactive: SHP2 C-SH2 domain E139D 1.47 | [1] 1.56 | SHP2 N-SH2 domain L43F 1.11 | SHP2 N-SH2 domain T42A 2.29 | SHP2 N-SH2 domain T52S 1.16 | [2] 1.35

B2: GLB1_Y488_D491N_YF (peptide)
chain: VNFGAYINNFK
inactive: SHP2 C-SH2 domain E139D 1.08 | [1] 1.47 | SHP2 N-SH2 domain L43F 1.31 | SHP2 N-SH2 domain T42A 0.955 | SHP2 N-SH2 domain T52S 0.961 | [2] 1.43

B3: GLB1_Y488_D491Y_YF (peptide)
chain: VNFGAYINFFK
inactive: SHP2 C-SH2 domain E139D 1.32 | [1] 1.63 | SHP2 N-SH2 domain L43F 1.31 | SHP2 N-SH2 domain T42A 1.33 | SHP2 N-SH2 domain T52S 1.08 | [2] 1.32

B4: GLB1_Y488_K493N_YF (peptide)
chain: VNFGAYINDFN
inactive: SHP2 C-SH2 domain E139D 1.06 | [1] 1.31 | SHP2 N-SH2 domain L43F 0.923 | SHP2 N-SH2 domain T42A 0.923 | SHP2 N-SH2 domain T52S 1.05 | [2] 1.57

B5: GLB1_Y488_N484K_YF (peptide)
chain: VKFGAYINDFK
inactive: SHP2 C-SH2 domain E139D 1.04 | [1] 1.11 | SHP2 N-SH2 domain L43F 0.749 | SHP2 N-SH2 domain T42A 1.42 | SHP2 N-SH2 domain T52S 1.33 | [2] 1.12

B6: GLB1_Y552_P549L (peptide)
chain: TLLAFYMGNFS
inactive: SHP2 C-SH2 domain E139D 1.93 | [1] 1.92 | SHP2 N-SH2 domain L43F 1.21 | SHP2 N-SH2 domain T42A 1.39 | SHP2 N-SH2 domain T52S 1.7 | [2] 2.23

B7: GLDC_Y839 (peptide)
chain: ILNANYMAKRL
inactive: SHP2 C-SH2 domain E139D 0.561 | [1] 0.594 | SHP2 N-SH2 domain L43F 0.937 | SHP2 N-SH2 domain T42A 1.11 | SHP2 N-SH2 domain T52S 1.09 | [2] 0.97

B8: GLE1_Y135 (peptide)
chain: GCVRMYELVHR
inactive: SHP2 C-SH2 domain E139D 1.93 | [1] 1.97 | SHP2 N-SH2 domain L43F 1.99 | SHP2 N-SH2 domain T42A 1.55 | SHP2 N-SH2 domain T52S 1.81 | [2] 2

B9: GLE1_Y135_G130D (peptide)
chain: DCVRMYELVHR
inactive: SHP2 C-SH2 domain E139D 1.31 | [1] 1.52 | SHP2 N-SH2 domain L43F 1.4 | SHP2 N-SH2 domain T42A 1.06 | SHP2 N-SH2 domain T52S 1.04 | [2] 1.32

B10: GLI3_Y168 (peptide)
chain: SSSPTYPDLPF
inactive: SHP2 C-SH2 domain E139D 0.649 | [1] 0.683 | SHP2 N-SH2 domain L43F 0.719 | SHP2 N-SH2 domain T42A 0.633 | SHP2 N-SH2 domain T52S 0.624 | [2] 0.684

B11: GLI3_Y168_P169L (peptide)
chain: SSSPTYLDLPF
inactive: SHP2 C-SH2 domain E139D 0.826 | [1] 0.889 | SHP2 N-SH2 domain L43F 0.861 | SHP2 N-SH2 domain T42A 1.34 | SHP2 N-SH2 domain T52S 0.768 | [2] 0.866

B12: GLI3_Y933_A934P (peptide)
chain: RLKAKYPAATG
inactive: SHP2 C-SH2 domain E139D 1.23 | [1] 1 | SHP2 N-SH2 domain L43F 0.988 | SHP2 N-SH2 domain T42A 1.15 | SHP2 N-SH2 domain T52S 1.24 | [2] 1.12

B13: GLRA1_Y307_K304E (peptide)
chain: LPEVSYVKAID
inactive: SHP2 C-SH2 domain E139D 0.905 | [1] 0.821 | SHP2 N-SH2 domain L43F 1.37 | SHP2 N-SH2 domain T42A 1.48 | SHP2 N-SH2 domain T52S 1.13 | [2] 0.602

B14: GLRA1_Y307_V308M (peptide)
chain: LPKVSYMKAID
inactive: SHP2 C-SH2 domain E139D 0.909 | [1] 0.918 | SHP2 N-SH2 domain L43F 1 | SHP2 N-SH2 domain T42A 0.961 | SHP2 N-SH2 domain T52S 1.02 | [2] 0.903

B15: GLUL_Y336_R341C (peptide)
chain: QEKKGYFEDRC
inactive: SHP2 C-SH2 domain E139D 0.61 | [1] 0.378 | SHP2 N-SH2 domain L43F 0.636 | SHP2 N-SH2 domain T42A 0.389 | SHP2 N-SH2 domain T52S 0.566 | [2] 0.644

B16: GLYATL2_Y127_D126E (peptide)
chain: SVQVEYMKTIL
inactive: SHP2 C-SH2 domain E139D 1 | [1] 1.15 | SHP2 N-SH2 domain L43F 0.843 | SHP2 N-SH2 domain T42A 2.81 | SHP2 N-SH2 domain T52S 1.21 | [2] 1.23

B17: GNAQ_Y356 (peptide)
chain: LNLKEYNLVGG
inactive: SHP2 C-SH2 domain E139D 1.3 | [1] 0.79 | SHP2 N-SH2 domain L43F 1.16 | SHP2 N-SH2 domain T42A 0.88 | SHP2 N-SH2 domain T52S 0.879 | [2] 0.792

B18: GNAS_Y339 (peptide)
chain: VTRAKYFIRDE
inactive: SHP2 C-SH2 domain E139D 0.638 | [1] 0.545 | SHP2 N-SH2 domain L43F 0.663 | SHP2 N-SH2 domain T42A 0.619 | SHP2 N-SH2 domain T52S 0.838 | [2] 0.783

B19: GNAS_Y391 (peptide)
chain: MHLRQYELLGG
active: SHP2 N-SH2 domain L43F 6.65 | SHP2 N-SH2 domain T52S 7.13
inactive: SHP2 C-SH2 domain E139D 1.19 | [1] 1.2 | SHP2 N-SH2 domain T42A 1.27 | [2] 2.55

B20: GNAS_Y391_E392K (peptide)
chain: MHLRQYKLLGG
inactive: SHP2 C-SH2 domain E139D 0.77 | [1] 0.666 | SHP2 N-SH2 domain L43F 0.612 | SHP2 N-SH2 domain T42A 0.678 | SHP2 N-SH2 domain T52S 0.772 | [2] 0.708

B21: GNB1_Y111_A106T (peptide)
chain: TPSGNYVACGG
inactive: SHP2 C-SH2 domain E139D 0.666 | [1] 0.737 | SHP2 N-SH2 domain L43F 0.869 | SHP2 N-SH2 domain T42A 0.673 | SHP2 N-SH2 domain T52S 0.784 | [2] 0.924

B22: GNB1_Y85_I80N (peptide)
chain: NIWDSYTTNKV
inactive: SHP2 C-SH2 domain E139D 1.11 | [1] 0.857 | SHP2 N-SH2 domain L43F 0.954 | SHP2 N-SH2 domain T42A 0.882 | SHP2 N-SH2 domain T52S 0.823 | [2] 1.06

B23: GNE_Y197_I200F (peptide)
chain: AKNKDYMSFIR
inactive: SHP2 C-SH2 domain E139D 0.837 | [1] 0.79 | SHP2 N-SH2 domain L43F 0.85 | SHP2 N-SH2 domain T42A 0.652 | SHP2 N-SH2 domain T52S 0.848 | [2] 0.687

B24: GNPTAB_Y728 (peptide)
chain: ITLKGYNLSKS
inactive: SHP2 C-SH2 domain E139D 1.21 | [1] 1.41 | SHP2 N-SH2 domain L43F 1.48 | SHP2 N-SH2 domain T42A 0.711 | SHP2 N-SH2 domain T52S 1.21 | [2] 0.878

B25: GNPTAB_Y728_K732N (peptide)
chain: ITLKGYNLSNS
inactive: SHP2 C-SH2 domain E139D 1.28 | [1] 0.645 | SHP2 N-SH2 domain L43F 0.955 | SHP2 N-SH2 domain T42A 0.942 | SHP2 N-SH2 domain T52S 0.875 | [2] 0.6

B26: GPAA1_Y49_S51L (peptide)
chain: LTQRTYMLENA
inactive: SHP2 C-SH2 domain E139D 1 | [1] 0.95 | SHP2 N-SH2 domain L43F 1.1 | SHP2 N-SH2 domain T42A 0.612 | SHP2 N-SH2 domain T52S 0.854 | [2] 1.06

B27: GPATCH8_Y1038 (peptide)
chain: SQSPHYFRSGR
inactive: SHP2 C-SH2 domain E139D 0.186 | [1] 0.263 | SHP2 N-SH2 domain L43F 0.172 | SHP2 N-SH2 domain T42A 0.187 | SHP2 N-SH2 domain T52S 0.239 | [2] 0.229

B28: GPI_Y17 (peptide)
chain: KLQQWYREHRS
inactive: SHP2 C-SH2 domain E139D 2.38 | [1] 1.92 | SHP2 N-SH2 domain L43F 2.25 | SHP2 N-SH2 domain T42A 1.65 | SHP2 N-SH2 domain T52S 2.18 | [2] 2.04

B29: GPI_Y351_R347C (peptide)
chain: HCFAAYFQQGD
inactive: SHP2 C-SH2 domain E139D 2.06 | [1] 1.97 | SHP2 N-SH2 domain L43F 1.65 | SHP2 N-SH2 domain T42A 1.6 | SHP2 N-SH2 domain T52S 1.83 | [2] 1.94

B30: GPR143_Y157 (peptide)
chain: STILLYHIMAW
inactive: SHP2 C-SH2 domain E139D 1.72 | [1] 2 | SHP2 N-SH2 domain L43F 1.82 | SHP2 N-SH2 domain T42A 1.82 | SHP2 N-SH2 domain T52S 1.93 | [2] 2.01

B31: GPR143_Y177_A173D_YF (peptide)
chain: GDAMLYFPSVS
inactive: SHP2 C-SH2 domain E139D 1.01 | [1] 0.691 | SHP2 N-SH2 domain L43F 0.765 | SHP2 N-SH2 domain T42A 0.781 | SHP2 N-SH2 domain T52S 0.76 | [2] 0.728

B32: GPR143_Y177_YF (peptide)
chain: GAAMLYFPSVS
inactive: SHP2 C-SH2 domain E139D 0.989 | [1] 0.727 | SHP2 N-SH2 domain L43F 0.805 | SHP2 N-SH2 domain T42A 0.753 | SHP2 N-SH2 domain T52S 0.782 | [2] 0.799

B33: GPX2_Y125_P126L (peptide)
chain: KDKLPYLYDDP
inactive: SHP2 C-SH2 domain E139D 0.489 | [1] 0.439 | SHP2 N-SH2 domain L43F 0.462 | SHP2 N-SH2 domain T42A 0.535 | SHP2 N-SH2 domain T52S 0.444 | [2] 0.48

B34: GPX2_Y125_P126L_YF (peptide)
chain: KDKLPYLFDDP
inactive: SHP2 C-SH2 domain E139D 0.368 | [1] 0.569 | SHP2 N-SH2 domain L43F 0.51 | SHP2 N-SH2 domain T42A 0.532 | SHP2 N-SH2 domain T52S 0.62 | [2] 0.502

B35: GPX2_Y127 (peptide)
chain: KLPYPYDDPFS
inactive: SHP2 C-SH2 domain E139D 0.765 | [1] 0.86 | SHP2 N-SH2 domain L43F 0.912 | SHP2 N-SH2 domain T42A 0.78 | SHP2 N-SH2 domain T52S 0.898 | [2] 1.08

B36: GPX2_Y127_P126L_YF (peptide)
chain: KLPFLYDDPFS
inactive: SHP2 C-SH2 domain E139D 1.38 | [1] 1 | SHP2 N-SH2 domain L43F 1.17 | SHP2 N-SH2 domain T42A 0.909 | SHP2 N-SH2 domain T52S 0.988 | [2] 1.13

B37: GPX2_Y127_YF (peptide)
chain: KLPFPYDDPFS
inactive: SHP2 C-SH2 domain E139D 1.05 | [1] 1.11 | SHP2 N-SH2 domain L43F 0.763 | SHP2 N-SH2 domain T42A 1.54 | SHP2 N-SH2 domain T52S 0.809 | [2] 1.02
